Measured values published in PubChem BioAssay AID2675 (National Center for Advancing Translational Sciences (NCATS), 2010).
In all, about 280,000 compounds went through this assay and about 100 (0.036%) were called active. The inconclusive results got no clear call from the source; some entries with a clear call stand among them for comparison. Calls follow the shape of the dose curve; as a rule, active = well fitted inhibition curve with a large enough effect in the signal ratio, with a control signal flat (not every such curve was filed as active); inconclusive = small, poorly fitted or top-dose-only effect, or effect the other way, or a change in a side signal; inactive = no such curve, though single readings can be large or run the other way; the % refers to the signal ratio. Potencies beside an inconclusive call are fits to weak or partial responses and may not hold up. “Side channel” marks fits to a control or component signal instead of the main read-out.

The molecules below were run against Muscleblind-like protein 1 (Homo sapiens) (UniProt Q9NR56) (assay: qHTS Assay for Inhibitors of MBNL1-poly(CUG) RNA binding). Details: TR-FRET MBNL1-His/biotin-(CUG)12 binding, 665/545 ratio; series mostly up to 57.5 µM.
Procedure, shortened: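 TR-FRET between His-tagged MBNL1 and biotin-(CUG)12 RNA, detected with Tb anti-His antibody (0.055 ng/ul) and streptavidin-XL665 (5 nM), 60 min at room temperature. Compounds titrated 92 nM to 58 uM; 665/545 nm ratio normalized to buffer and complex controls.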
Potency is read from the fitted curve at half-maximal effect; tags tell the direction and shape of the fitted curve or compound fluorescence and quenching.

UniProt Q9NR56, sequence (Q9NR56 whole entry, looked up): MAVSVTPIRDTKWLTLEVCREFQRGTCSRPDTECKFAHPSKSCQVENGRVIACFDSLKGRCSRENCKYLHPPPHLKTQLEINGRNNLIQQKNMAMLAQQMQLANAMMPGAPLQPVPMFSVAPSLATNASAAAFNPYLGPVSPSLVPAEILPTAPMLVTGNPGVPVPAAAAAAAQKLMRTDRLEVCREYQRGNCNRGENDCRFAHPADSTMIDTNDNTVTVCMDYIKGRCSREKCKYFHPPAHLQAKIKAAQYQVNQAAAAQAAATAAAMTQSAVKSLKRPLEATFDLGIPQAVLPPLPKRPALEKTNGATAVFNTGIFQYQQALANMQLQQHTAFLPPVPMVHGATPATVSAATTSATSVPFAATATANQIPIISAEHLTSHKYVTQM

Compound	Potency
CCOc1cccc(C2C(C(=O)c3ccc(C)o3)=C(O)C(=O)N2c2nccs2)c1 (stereo not drawn)	inconclusive: 35.5 µM [quencher, side channel, partial curve]
CN(C)C1NC(=O)c2cc(-c3ccccc3)sc2N1 (stereo not drawn)	inconclusive: 25.1 µM [quencher, side channel, partial curve, poor fit]
CN(C)/C=C/C(=O)c1ccc(N2CCN(c3ncc(C(F)(F)F)cc3Cl)CC2)cc1	inactive
O=C1Nc2cc(C(=O)N3CCOCC3)ccc2S/C1=C\c1ccccc1	inconclusive: 14.1 µM [quencher, side channel, partial curve]
Cc1ccc(C(=O)N2CCN(c3ccc(NC(=O)COc4ccccc4C)cc3)CC2)cc1	inactive
CC(C(=O)Nc1cccc([N+](=O)[O-])c1)N1C(=O)NC2(CCCC2)C1=O (stereo not drawn)	inconclusive: 25.1 µM [quencher, side channel, partial curve]
Cc1cc(C(=O)NCc2nc(-c3ccccc3)no2)ccc1[N+](=O)[O-]	inconclusive: 28.2 µM [quencher, side channel, single point]
Cc1cc2c(c(N)n1)c(=O)oc1ccccc12	inactive
COc1ccc2c(c1)c(=O)c(C(=O)c1ccccc1)cn2Cc1ccccc1	inconclusive: 39.8 µM [fluorescent, single point]
COc1ccc(CC(=O)Nc2c3c(nn2-c2cccc(Cl)c2)CS(=O)C3)cc1 (stereo not drawn)	inconclusive: 79.4 µM [inhibitor, single point]
COc1ccc(S(=O)(=O)N2N=C(c3cccc(NS(C)(=O)=O)c3)CC2c2ccco2)cc1 (stereo not drawn)	inactive
COc1ccc(C(=O)C2CCN(C(=O)c3ccc(F)cc3)CC2)cc1	inactive
CCCCN(CCCC)C(=O)c1cc(Cl)ccc1[N+](=O)[O-]	inconclusive: 8.91 µM [quencher, side channel, full curve, poor fit]
COc1cccc(C(=O)/C=C/Nc2ccc(NC(C)=O)cc2)c1	inconclusive: 15.8 µM [quencher, side channel, partial curve]
O=C(O)C(c1ccccc1)N1C(=O)c2ccccc2C1=O (stereo not drawn)	inactive
COc1ccc(CN2CCN(C(=O)Cn3nc(C(=O)O)c4ccccc4c3=O)CC2)cc1F	inconclusive: 14.1 µM [quencher, side channel, partial curve]
Cc1ccc(NC(=O)CN2C(=O)S/C(=C\c3ccc(-c4cccc(C(=O)O)c4C)o3)C2=O)cc1C	inactive
COC(=O)COc1ccccc1/C=C1/NC(=O)NC1=O	inconclusive: 15.8 µM [quencher, side channel, partial curve]
COc1ccc(NC(=S)NCc2ccccn2)cc1OC	inactive
O=C(Cc1ccccc1)Nc1cc([N+](=O)[O-])ccc1N1CCOCC1	inconclusive: 10 µM [quencher, side channel, partial curve]
Nc1ccc(C(=O)NCCCSc2ccccc2)cc1[N+](=O)[O-]	inconclusive: 10 µM [quencher, side channel, partial curve]

Compound	Potency
CN(C(=O)NC(=O)C1=C(N2CCOCC2)/C(=C/c2ccccc2)CC1)S(C)(=O)=O	inconclusive: 39.8 µM [quencher, single point]
Cc1cc(C)cc(-c2nnc(SCC(=O)c3ccc4c(c3)OCCO4)o2)c1	inconclusive: 15.8 µM [quencher, side channel, partial curve]
CCc1nnc(NC(=O)CC(CN(C)S(=O)(=O)c2ccccc2)c2ccccc2)s1 (stereo not drawn)	inconclusive: 1 µM [quencher, side channel, single point]
O=C(NCCc1ccc(F)cc1)c1cc(=O)c2ccccc2o1	inconclusive: 0.355 µM [quencher, side channel, full curve, poor fit]
CCCS(=O)(=O)N1CCN(S(=O)(=O)c2ccccc2[N+](=O)[O-])CC1	inactive
Cc1ccccc1-c1nnc(NC(=O)c2ccc(N3C(=O)CCC3=O)cc2)s1	inconclusive: 31.6 µM [fluorescent, side channel, partial curve]
COc1ccc(C=C2C(=O)c3ccccc3C2=O)cc1O	inconclusive: 15.8 µM [quencher, side channel, partial curve]
CCN1CCN(c2ncnc3scc(-c4ccc(OC)cc4)c23)CC1	inactive
CC(=O)[C@@]12O[C@@H]1C[C@H]1[C@@H]3CC[C@H]4C[C@@H](O)CC[C@]4(C)[C@H]3CC[C@@]12C	inconclusive: 158 µM [inhibitor, single point]
CC(=O)c1ccc(N=Nc2ccc(C)cc2)cc1	inconclusive: 44.7 µM [quencher, side channel, partial curve, poor fit]
COc1ccc(/C=C/C(=O)c2ccc(Cl)s2)cc1O	inconclusive: 25.1 µM [quencher, side channel, partial curve]
COC(=O)C(Cc1ccccc1)OS(N)(=O)=O (stereo not drawn)	inactive
O=C(c1cccc([N+](=O)[O-])c1)c1ccc2c(c1)OCCOCCOCCOCCO2	inconclusive: 12.6 µM [quencher, partial curve]
O=C1/C(=N\S(=O)(=O)c2cccs2)C([n+]2ccccc2)=C([O-])c2ccccc21	inconclusive: 2.82 µM [quencher, full curve]
CCc1c(C)[nH]n(-c2nc(-c3cccc([N+](=O)[O-])c3)cs2)c1=O	inconclusive: 20 µM [quencher, side channel, partial curve]
O=C(NC1CCCc2ccccc21)C1CCN(S(=O)(=O)c2cccc(C(F)(F)F)c2)CC1 (stereo not drawn)	inconclusive: 10 µM [fluorescent, side channel, partial curve, poor fit]
COc1ccccc1NC(=O)CSCc1ccc([N+](=O)[O-])cc1	inconclusive: 25.1 µM [quencher, side channel, single point]
Cc1nc2ccccn2c1C(=O)N/N=C/c1ccc(CNC(=O)C(=O)Nc2ccccc2)o1	inactive
Cn1cc([N+](=O)[O-])c(C(=O)N/N=C/c2ccc([N+](=O)[O-])cc2)n1	inconclusive: 3.98 µM [quencher, side channel, partial curve]
O=[N+]([O-])c1ccc(NC(=S)N2CCOCC2)cc1	inconclusive: 7.08 µM [quencher, side channel, full curve]
CC(=O)NN1C(=O)/C(=C\c2ccc(C)cc2)SC1=S	inconclusive: 14.1 µM [quencher, side channel, partial curve]

Compound	Potency
CC(=O)N(C)c1ccc(N=Nc2c(C)[nH]n(C(N)=S)c2=O)cc1	inconclusive: 11.2 µM [quencher, side channel, partial curve]
O=C(CSc1nnc(NC(=O)c2ccccc2F)s1)NCC1CCCO1 (stereo not drawn)	inactive
CC(C)C[C@H](NC(=O)[C@@H]1Cc2c([nH]c3ccccc23)C2c3ccccc3C(=O)N21)C(=O)N1CCC[C@@H]1C(=O)O (stereo partly drawn)	inconclusive: 39.8 µM [fluorescent, single point]
CCCc1[nH][nH]c(=O)c1C(c1ccccc1)C(C#N)C#N (stereo not drawn)	inactive
O=C(c1ccc([N+](=O)[O-])c(CS(=O)(=O)c2ccc(Cl)cc2)c1)N1CCCCC1	inconclusive: 12.6 µM [quencher, side channel, partial curve]
Cc1cccc2nc3c(nc12)-c1ccccc1C3=O	inconclusive: 20 µM [quencher, side channel, partial curve]
O=C(CCC(=O)c1cccs1)OCC(=O)c1ccc(Cl)s1	inactive
O=C(Nc1cccc(C(F)(F)F)c1)Nc1ccc(N2CCCC2)c(S(=O)(=O)Nc2ccccc2Cl)c1	inactive
N#Cc1c(NC(=O)CCCC(=O)O)sc2c1CCCCC2	inconclusive: 158 µM [inhibitor, partial curve, poor fit]
COC(=O)c1ccc(SCC(=O)NC2CCCCC2)c([N+](=O)[O-])c1	inactive
CCOC(=O)C1=C(c2ccccc2)NC(=O)NC1c1cc(OCC)c(O)c([N+](=O)[O-])c1 (stereo not drawn)	inconclusive: 17.8 µM [quencher, side channel, partial curve]
COc1ccc(/C=C/c2nc(C#N)c(NCCN(C)C)o2)cc1OC	inconclusive: 10 µM [quencher, partial curve]
CC(=O)c1cccc(NC(=O)CCNS(=O)(=O)c2cccc3nsnc23)c1	inconclusive: 15.8 µM [quencher, side channel, partial curve]
O=C1NC(c2ccccc2Cl)Nc2ccccc21 (stereo not drawn)	inactive
O=C(O)c1cc2nc(-c3cccs3)cc(C(F)(F)F)n2n1	inconclusive: 39.8 µM [quencher, side channel, single point]
Cc1[nH]c2ccccc2c1/C=C(/C#N)C(=O)NC(C)C	inconclusive: 14.1 µM [quencher, side channel, partial curve]
O=S(=O)(NCc1ccncc1)c1ccccc1	inactive
CCc1cccc(NC(=O)CCc2nc(-c3cccs3)no2)c1	inconclusive: 39.8 µM [quencher, side channel, single point]
COc1cc(/C=N/Nc2cccc3cccnc23)cc(OC)c1O	inactive
Brc1ccc(-c2nc3ncccn3c2Nc2ccc3c(c2)OCCO3)o1	inconclusive: 35.5 µM [quencher, side channel, single point]
CC(=O)c1c2c3c(c(Br)ccc3n(C)c1=O)C(=O)c1ccccc1-2	inconclusive: 2.51 µM [quencher, side channel, full curve]
